Source: PubChem BioAssay AID445 (National Center for Advancing Translational Sciences (NCATS), 2006)
Among all 110,000 compounds or so, about 40 (0.04%) were called active. The inconclusive results got no clear call from the source; some entries with a clear call stand among them for comparison. Calls come from the whole dose curve; as a rule, active = well fitted curve in the direction sought with a large enough effect in the signal ratio (not every such curve was filed as active); inconclusive = small, poorly fitted or top-dose-only effect, or a change in a side signal; inactive = flat fitted curve, though single readings scatter; the % refers to the signal ratio. A potency beside an inconclusive call is a rough fit, not a confirmed value.

Test: IkB Signaling;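 for IkBa stabilization activation: 0% = basal untreated cells and 100% = reference inhibitor full response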
Conditions: ABC-DLBCL IkBa-CBG/CBR dual luciferase ratio (green luciferase fused to IkBa over red control in OCI-Ly3 lymphoma cells), 4 h; IkBa stabilization activation: at 57.1 µM (top of the series), scaled: untreated 0%, proteasome inhibitor 100% unless noted
Procedure, shortened: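 Luminescence ratio of IκBα-fused green versus native red beetle luciferase in OCI-Ly3 cells, 4 h post-doxycycline with compound; red signal alone, scaled from basal (0%) to zero light (-100%), flagged nonspecific or cytotoxic effects.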
Potency is the fitted concentration of half-maximal effect.

Row | SMILES | IkBa stabilization activation | Potency
1 | COc1cccc(C(=O)N2c3ncnn3C3(CCCCC3)[C@@H]3CCCC[C@@H]32)c1 | inconclusive: -0.285% [signal inhibitor] | 
2 | CN(C)c1ncc2nc(CCc3ccccc3)c(=O)n(CCC#N)c2n1 | inactive: -2.73% [at 11.4 µM, scaled: untreated 0%, proteasome inhibitor 100%] | 
3 | O=C(CC(c1ccccc1)c1cc(Br)ccc1O)NCc1ccco1 (stereo unspecified) | inconclusive: 3.12% [signal inhibitor] | 
4 | Cn1cc(-c2nc3cnc(Oc4cccc(Cl)c4)nc3n(C3CC3)c2=O)c2ccccc21 | inactive: -3.46% [at 11.4 µM, scaled: untreated 0%, proteasome inhibitor 100%] | 
5 | CCCCc1ccc(NC(=O)c2ccc3c(c2)CCN3S(=O)(=O)CC)cc1 | inactive: 1.35% | 
6 | Cc1cccc(N2CCN(c3cc(C)nc4nnnn34)CC2C)c1 (stereo unspecified) | inactive: -0.00429% | 
7 | COc1ccc(CNc2cc(-c3ccccc3Cl)ncn2)c(OC)c1 | inactive: -0.51% [at 11.4 µM, scaled: untreated 0%, proteasome inhibitor 100%] | 
8 | CCOc1ccc(Nc2cc(C)nc(N3CCOCC3)n2)cc1 | inactive: -0.354% | 
9 | CN(Cc1ccccc1)S(=O)(=O)c1ccc(NC(=O)c2cc(=O)c3ccccc3o2)cc1 | inconclusive: -2.53% [signal inhibitor] | 
10 | CCc1cccc(C)c1NC(=O)CN1C(=O)C2(SCC(=O)N2c2cccc(F)c2)c2ccccc21 (stereo unspecified) | inconclusive: 2.87% [signal inhibitor] | 
11 | CCOc1cccc2cc(S(=O)(=O)c3ccccc3F)c(=O)oc12 | inconclusive: 4.39% [signal inhibitor] | 
12 | COc1cccc(-c2nc(SCC(=O)NC3CCCC3)c(-c3ccc(C)cc3)[nH]2)c1 | inconclusive: 4.17% [signal inhibitor] | 
13 | Cc1ccc(CNC(=O)c2ccc3nc(SCc4ccc(F)cc4)[nH]c3c2)cc1 | inconclusive: 4.12% [signal inhibitor] | 
14 | Cc1cccc2cccnc12 | inactive: -1.09% | 
15 | CCc1cccc(NC(=O)C(Cc2ccccc2)n2cccc2)c1 (stereo unspecified) | inconclusive: 1.55% [signal inhibitor] | 
16 | Cc1ccc(C(=O)Nc2c(C)nc3ccccn3c2=O)cc1C | inactive: -0.49% | 
17 | COc1ccc(N2CC(NC(=O)c3ccc(S(=O)(=O)N4CCCCC4)cc3)CC2=O)cc1 (stereo unspecified) | inactive: -0.691% | 
18 | CCc1ccc(NC(=O)CN(c2cc(C)cc(C)c2)S(=O)(=O)c2c(C)[nH]c(=O)[nH]c2=O)cc1 | inconclusive: 1.58% [signal inhibitor] | 
19 | c1ccc(CCNc2c3c(nc4ncnn24)CCC3)cc1 | inactive: -0.88% | 
20 | CCCOc1cccc(C(=O)Nc2cc(-c3ccccc3)no2)c1 | inconclusive: 5.04% [signal inhibitor] | 
21 | CC1=C(C(=O)Nc2ccc(F)cc2F)C2(CCN(C(C)C)CC2)OC1=O | inactive: 3.18% | 
22 | COc1ccc(OC)c(S(=O)(=O)Nc2cccc(-c3ccc(N4CCCCC4)nn3)c2)c1 | inactive: -1.46% | 
23 | CC(C)(C)c1ccc(C(=O)Nc2onc3c2CCCC3)cc1 | inactive: -2.24% | 
24 | Cc1ccc(C)c(N2CCN(C(=O)CSCc3ccccc3Cl)CC2)c1 | inconclusive: 0.421% [signal inhibitor] | 

Row | SMILES | IkBa stabilization activation | Potency
25 | COc1cccc(NC(=O)CC2Nc3cc(C)c(C)cc3NC2=O)c1 (stereo unspecified) | inconclusive: 3.78% [signal inhibitor] | 
26 | CCc1nn2cc(-c3ccccc3)nc2s1 |  | inconclusive: 20 µM [signal inhibitor, partial curve]
27 | CCn1c2ccccc2c2nnc(SCCCn3c(=O)[nH]c4ccccc43)nc21 | inconclusive: -5.18% [signal inhibitor] | 
28 | CCc1ccc(S(=O)(=O)Nc2cccc(-c3ccc(N4CCOCC4)nn3)c2)cc1 | inconclusive: 2.21% [signal inhibitor] | 
29 | CCOc1ccc(NS(=O)(=O)c2ccc3c4c(cccc24)C(=O)N3)cc1 | inconclusive: 12.1% [signal inhibitor] | 
30 | Cc1ccc(S(=O)(=O)N[C@H](CN)C(=O)O)cc1 | inactive: 0.142% [at 11.4 µM, scaled: untreated 0%, proteasome inhibitor 100%] | 
31 | O=C(Nc1cccc(F)c1)c1ccc2c(c1)N(Cc1ccccc1)C(=O)c1ccccc1S2(=O)=O | inconclusive: -1.44% [signal inhibitor] | 
32 | COc1ccc(C(=O)NCC(c2ccc(N(C)C)cc2)N2CCc3ccccc32)cc1OC (stereo unspecified) |  | inconclusive: 31.6 µM [signal inhibitor, single point]
33 | COc1ccc(-c2nc3ccccc3s2)cc1NC(=O)c1ccc(F)cc1 | inactive: -4.19% | 
34 | Cc1ccc(OCC(=O)Nc2ccccc2OCc2cc(=O)n3ccccc3n2)cc1C | inconclusive: 1.56% [signal inhibitor] | 
35 | CCC1Oc2ccc(Cl)cc2N(CC(=O)NCCc2ccc(Cl)cc2)C1=O (stereo unspecified) | inconclusive: 2.09% [signal inhibitor] | 
36 | CCC(C)(C)C(=O)O[C@@H]1C[C@@H](C)C=C2C=C[C@H](C)[C@H](CC[C@@H]3C[C@@H](O)CC(=O)O3)[C@H]21 | inconclusive: 0.797% [signal inhibitor] | 
37 | COc1ccc(-c2nc(C#N)c(N3CCCCCC3)o2)cc1OC | inactive: -4.4% | 
38 | COCCNc1nc(NCc2cccc(Cl)c2)c2cnn(C)c2n1 | inconclusive: 1.32% [signal inhibitor] | 
39 | CCCCCCCCCCCCCCCC[n+]1ccccc1 | inconclusive: -3.03% [signal inhibitor] | 
40 | N#C/C(=C\Nc1ccc2c(c1)OCCO2)c1nc2ccccc2[nH]1 | inconclusive: 4.9% [signal inhibitor] | 
41 | O=[N+]([O-])c1cc(-c2nc(-c3ccccc3)no2)ccc1NC1CCCCC1 | inconclusive: 8.72% [signal inhibitor] | 
42 | C=Cc1ccc(Cn2c(C)c(CNCc3ccccc3C)c(C(=O)O)c2C)cc1 | inconclusive: 1.1% [signal inhibitor] | 
43 | COCCN1C(=O)c2ccccc2C(C(=O)NCCN(C)C)C1c1ccc(F)cc1 (stereo unspecified) | inactive: 0.318% | 
44 | O=C(NC1CCCCCC1)c1cc(S(=O)(=O)N2CCOCC2)ccc1N1CCCCC1 | inconclusive: 2.08% [signal inhibitor] | 
45 | COc1ccc(C2c3cc(OC)c(OC)cc3CC(=O)N2c2ccc(C)c(F)c2)cc1 (stereo unspecified) | inconclusive: 2.89% [signal inhibitor] | 
46 | CC(=O)Nc1ccc(N(C(=O)Cn2nnc3ccccc32)C(C(=O)NCc2ccccc2)c2ccc(C)cc2)cc1 (stereo unspecified) | inconclusive: -2.07% [signal inhibitor] | 
47 | CCc1c(C)nc2[nH]nc(-c3ccccc3)n2c1=O |  | inconclusive: 25.1 µM [signal inhibitor, partial curve]
48 | Cc1ccc2[nH]c(=O)c3cc(C(=O)NCCCN4CCC(C)CC4)sc3c2c1 | inactive: 0.466% | 

Row | SMILES | IkBa stabilization activation | Potency
49 | CCOC(=O)C(Cc1c[nH]c2ccccc12)NC(=O)COc1ccc(CC)cc1 (stereo unspecified) | inconclusive: 9.46% [signal inhibitor] | 
50 | Cc1cccc(S(=O)(=O)c2c(N)n(Cc3ccco3)c3nc4ccccc4nc23)c1 | inconclusive: 1.16% [signal inhibitor] | 
51 | CCOC(=O)c1c(C)[nH]c(C)c1S(=O)(=O)N1CCC(C(=O)NCc2ccccc2Cl)CC1 | inactive: 0.153% | 
52 | COc1ccc(C)cc1N(C)C(=O)CCc1nc(-c2ccccc2F)no1 | inconclusive: 2.51% [signal inhibitor] | 
53 | CN(C)c1ccc(Nc2ncnc3sc4c(c23)CCCC4)cc1 | inactive: -0.821% | 
54 | Cc1nnsc1NC(=O)OCC(C)C | inconclusive: -2.39% [signal inhibitor] | 
55 | CCOC(=O)c1sc(NC(=O)c2ccco2)nc1C | inactive: 2.02% | 
56 | CCc1ccc(NC(=O)Cn2c(=O)n(CCC(=O)NCCc3ccc(Cl)cc3)c(=O)c3ccccc32)cc1 | inactive: 3.62% | 
57 | COc1ccc(C)cc1NC(=O)Nc1cccc(-c2noc(C)n2)c1 | inconclusive: 6.23% [signal inhibitor] | 
58 | COc1ccc(C(=O)Nc2nc(-c3nnn(-c4ccc(C(C)C)cc4)c3C)ns2)cc1 | inactive: 0.99% | 
59 | COc1ccccc1CCNC(=O)C(C)Sc1nc(-c2ccccc2)cc(C(F)(F)F)n1 (stereo unspecified) | inconclusive: 3.71% [signal inhibitor] | 
60 | COc1ccc(F)cc1S(=O)(=O)Nc1cccc(-c2ccc(N3CCC(C)CC3)nn2)c1 | inactive: 11.4% | 
61 | Cc1ccc(C)c(N2CCN(C(=O)CCCOc3cc(=O)n(C)c4ccccc34)CC2)c1 | inconclusive: 3.54% [signal inhibitor] | 
62 | CCCOc1ccc(CNC(=O)c2[nH]c3cc(OC)ccc3c2Sc2ccccc2)cc1 | inconclusive: 0.0698% [signal inhibitor] | 
63 | COc1cccc(CN2C(=O)CN(C3CCCCC3)C(=O)C2c2ccc(F)cc2)c1 (stereo unspecified) | inactive: -0.118% | 
64 | Cc1ccc(/C=C/C(=O)Nc2ccccc2C(N)=O)o1 |  | inconclusive: 15.8 µM [signal inhibitor]
65 | CCCCOc1ccc(S(=O)(=O)n2c(C)nc3ccccc32)cc1 | inconclusive: 7.54% [signal inhibitor] | 
66 | CN(Cc1ccccc1)C(=O)N[C@@H](Cc1ccccc1)C(=O)O | inactive: -0.427% | 
67 | COc1ccccc1NC(=O)COc1ccc(-c2nn(C)c(=O)c3ccccc23)cc1 | inconclusive: 11.3% [signal inhibitor] | 
68 | Cc1ccc2oc(=O)n(Cc3ccccc3OC(C)C)c2c1 | inconclusive: 3.27% [signal inhibitor] | 
69 | COc1cc(OC)cc(-c2nc3n(n2)C(c2ccccc2)C(C(N)=O)=C(C)N3)c1 (stereo unspecified) | inconclusive: 4.48% [signal inhibitor] | 
70 | Cc1ccc2nc3c(cc(C(=O)NCC4CCCO4)c(=N)n3CCCOC(C)C)c(=O)n2c1 (stereo unspecified) | inactive: 0.645% | 
71 | Cc1sc(-c2cc3c([nH]c2=O)CC(c2ccccc2)CC3=O)nc1-c1ccc(Cl)cc1 (stereo unspecified) | inconclusive: 15.1% [signal activator] | 
